In article PMC7819943, “Rice protein-binding microarrays: a tool to detect cis-acting elements near promoter regions in rice”:
The other results are listed elsewhere or left out.

These sequences were tested against T1, OsWOX13 (Oryza sativa, UniProt Q5QMM3 1-267) (assay: protein-binding microarray (RPBM); PBS, 2% BSA, 51.3 ng/ul salmon testes DNA, 50 uM zinc acetate, 200 nM TF, 25 C, 1 h; high values mean tight binding). Conditions: protein: recombinant; tags: N-terminal polyhistidine and DsRed monomer fusion (pET32a); label: CyDye5-dUTP incorporated in the synthesized complementary strand; 3' TTTTT single-stranded linker to array surface; dsDNA, one strand shown.
T1 sequence: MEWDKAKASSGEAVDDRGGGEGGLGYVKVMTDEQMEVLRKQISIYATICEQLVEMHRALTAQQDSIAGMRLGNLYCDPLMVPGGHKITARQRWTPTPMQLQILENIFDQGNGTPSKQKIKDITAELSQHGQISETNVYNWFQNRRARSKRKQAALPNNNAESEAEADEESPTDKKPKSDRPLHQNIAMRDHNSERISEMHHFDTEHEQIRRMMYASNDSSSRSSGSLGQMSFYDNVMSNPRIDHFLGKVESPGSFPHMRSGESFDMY
Method in brief: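 Binding signal here means per-feature fluorescence intensity in arbitrary units. The values were read on an Axon 4000B scanner after a custom Agilent array, double-stranded by primer extension with Cy5-dUTP, was incubated with 200 nM protein at 25 °C for 1 h in PBS with 2% BSA, salmon testes DNA and 50 µM zinc acetate, then washed. The proteins were transcription factors with an N-terminal polyhistidine tag and DsRed, expressed in E. coli BL21-CodonPlus and purified on Ni–NTA.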

Row | Sequence | binding signal
1 | AAGAAATCTTCAGTACTTAAATTGATTTATCCTCCGAACTCGGAGTCACCTAGTGCAG | 5940 fluorescence intensity (a.u.)
2 | ATCAAATTTACTTGCATGACAACGAAGAGAACCCGTTATTCGGAGTCACCTAGTGCAG | 5420 fluorescence intensity (a.u.)
3 | GTTATAAATGCCGTAAATTAAGTCAAGTTAACGTATCTGTCGGAGTCACCTAGTGCAG | 6620 fluorescence intensity (a.u.)
4 | TCCAAAATTAACTCTATTCATCCCTAACTAACGTCTCTGTCGGAGTCACCTAGTGCAG | 6120 fluorescence intensity (a.u.)
5 | TCTTGACTATAAATAATTACCACAATAATATACTACTTCACGGAGTCACCTAGTGCAG | 9140 fluorescence intensity (a.u.)
6 | CGGAGAGAGATTTGATAATTTAACACTCCTTTTCAATTATCGGAGTCACCTAGTGCAG | 6640 fluorescence intensity (a.u.)
7 | AAGTAACACATTGCAATCAATTCAGCTCTACATCCACAATCGGAGTCACCTAGTGCAG | 9060 fluorescence intensity (a.u.)
8 | GAAATAGACATACATTATGTCCAGATTCAAACTCAGGATTCGGAGTCACCTAGTGCAG | 8340 fluorescence intensity (a.u.)
9 | ATTTGATTGACGAGGTATAGTAAAATGCGTCAACTTATGTCGGAGTCACCTAGTGCAG | 63200 fluorescence intensity (a.u.)
10 | AACTTAGATTTAAATTTAGAAATTTATGATATAATCTTTTCGGAGTCACCTAGTGCAG | 19900 fluorescence intensity (a.u.)
11 | TCAAAATCTAGCTGTTTCAATCTATCCATCTTGCCTAGTGCGGAGTCACCTAGTGCAG | 3350 fluorescence intensity (a.u.)
12 | GAGGCGATTCACCAATCACCATCGCGGCATGCATGATCCCCGGAGTCACCTAGTGCAG | 5120 fluorescence intensity (a.u.)
13 | GTAGATGATTTACTTAATGTGTTCATAAGGTGGATGGCTTCGGAGTCACCTAGTGCAG | 32500 fluorescence intensity (a.u.)
14 | TGTGGTTCAGTAATTGGTAATGGTATGTCTAGAGAAAATACGGAGTCACCTAGTGCAG | 4400 fluorescence intensity (a.u.)
15 | TTTCCTCTATAATTTCACTTGATTAAGTTGATTTAACTTTCGGAGTCACCTAGTGCAG | 10200 fluorescence intensity (a.u.)
16 | TGTCACTTAATTAAAAGTTCCCAAACCGTTTGATTTGTGTCGGAGTCACCTAGTGCAG | 16900 fluorescence intensity (a.u.)
17 | AGTCAAGAATTATGAAAATTGATGGAGTAACACCGCTACTCGGAGTCACCTAGTGCAG | 11900 fluorescence intensity (a.u.)
18 | CTTGGTTGTTTAATTTGTTTGTTTGCTTTAGCTCTGCTCCCGGAGTCACCTAGTGCAG | 4010 fluorescence intensity (a.u.)
19 | ATCCAAGTAATTAGCGCTTATACTGCGATTTGGCTAAACCCGGAGTCACCTAGTGCAG | 13000 fluorescence intensity (a.u.)
20 | CCCAATCAAGTAGGAGAAATTTGTGTTCGAGGGCCAAATGCGGAGTCACCTAGTGCAG | 4000 fluorescence intensity (a.u.)
21 | TTTGATGACAAACCCTAATTTGGAAGGGATGAAACAACTACGGAGTCACCTAGTGCAG | 9480 fluorescence intensity (a.u.)

Row | Sequence | binding signal
22 | AACCGATAATTGAGCCTTGCAATATCCATTAAAGGGAACCCGGAGTCACCTAGTGCAG | 18000 fluorescence intensity (a.u.)
23 | TCATCGTGGTATTAATTATTTAATAATTATAAATATATTTCGGAGTCACCTAGTGCAG | 10200 fluorescence intensity (a.u.)
24 | GTGGATTTATCTTTAAATTATTTCAAAATAATGAATCACACGGAGTCACCTAGTGCAG | 3740 fluorescence intensity (a.u.)
25 | TCAAACTTACATAATTTACATGCCATGTTATCCAATATGCCGGAGTCACCTAGTGCAG | 11100 fluorescence intensity (a.u.)
26 | ATCACATAATTACATATGTGAATGTAAAACAACTAATAATCGGAGTCACCTAGTGCAG | 8670 fluorescence intensity (a.u.)
27 | AAGATAGATAGGTGAGGCATACGGTGAGTACCGAGTAGGACGGAGTCACCTAGTGCAG | 3710 fluorescence intensity (a.u.)
28 | CTACTCATTAATTATTTAATTATATGAAATTTTCACACTTCGGAGTCACCTAGTGCAG | 30700 fluorescence intensity (a.u.)
29 | GGCAGGCAGCCCTGATTAGCTAAACACGTCATTGCTCAGGCGGAGTCACCTAGTGCAG | 4270 fluorescence intensity (a.u.)
30 | CTTTAAAATTTATTCCAAATTATAACAATATTTTCTTCTCCGGAGTCACCTAGTGCAG | 3410 fluorescence intensity (a.u.)
31 | TTTAATTAATTGTAGGACAAGATAGCAAACGTGTGGCTACCGGAGTCACCTAGTGCAG | 59900 fluorescence intensity (a.u.)
32 | TACACTGATTGACAGACATTGAGCCTGTAGCTGGAAAGATCGGAGTCACCTAGTGCAG | 40500 fluorescence intensity (a.u.)
33 | CCTAATCTGCTCTGTAAATGGCAGATTACCGGGTCGTTTACGGAGTCACCTAGTGCAG | 3260 fluorescence intensity (a.u.)
34 | ATTTTCTATCTGGACATGATTGACCTCACGTTTCACCGTCCGGAGTCACCTAGTGCAG | 18400 fluorescence intensity (a.u.)
35 | ATAACTTACAGTAATCACGTGGTTATTACGATAACCGTCGCGGAGTCACCTAGTGCAG | 8060 fluorescence intensity (a.u.)
36 | TCTGATGGATTTGTAACAGCAGCTTTCAGATCTCTCTTTCCGGAGTCACCTAGTGCAG | 34600 fluorescence intensity (a.u.)
37 | GAAGACCGCCATTGTTGATTGGAAGAAGAGGAAAAGGACGCGGAGTCACCTAGTGCAG | 16400 fluorescence intensity (a.u.)
38 | TATGATAAAATTGTTACATCATTTACCAGATGATTTAGAACGGAGTCACCTAGTGCAG | 7880 fluorescence intensity (a.u.)
39 | GATCAATCATAACCATCTAGACGTTCATTGTGAGTAGTGCCGGAGTCACCTAGTGCAG | 30700 fluorescence intensity (a.u.)
40 | AGTTGATGGACTGAAATGGAACCATTAGGTAGCAAACATTCGGAGTCACCTAGTGCAG | 13500 fluorescence intensity (a.u.)
41 | ATTAGATTGGCTATAGATGAATTGGAGCTGGTAGTAGGCTCGGAGTCACCTAGTGCAG | 49400 fluorescence intensity (a.u.)
42 | AGCTGCATAATTGACACATAATAGATAAAATTGGAGTGCTCGGAGTCACCTAGTGCAG | 26100 fluorescence intensity (a.u.)
